Laboratory results reported in publication PMC11911400, “Mechanism of ASF1 engagement by CDAN1” (Nature Communications, 2025).
Numbering of substitutions follows the chain as printed. These are yes or no findings as the source states them, for the method shown. In cells and extracts the contact can be indirect. Some binding calls cover weakened binding; strength is not graded here.

By UniProt entry, the sequences of proteins in these tests, tags left out. Where a name states a change or a piece, a line headed by the entry shows the natural chain unless it says otherwise. Chains listed by the source or under a name are the forms on record and can include a tag or linker.
UniProt Q9NVP2: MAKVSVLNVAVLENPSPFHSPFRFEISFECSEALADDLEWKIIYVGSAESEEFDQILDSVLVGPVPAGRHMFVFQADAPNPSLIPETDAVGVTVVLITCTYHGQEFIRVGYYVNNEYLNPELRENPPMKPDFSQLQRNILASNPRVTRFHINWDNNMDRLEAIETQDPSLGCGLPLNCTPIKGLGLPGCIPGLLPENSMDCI
FLAG-ASF1B N > A (ASF1B with the NTD of ASF1A) (Q9NVP2, form named): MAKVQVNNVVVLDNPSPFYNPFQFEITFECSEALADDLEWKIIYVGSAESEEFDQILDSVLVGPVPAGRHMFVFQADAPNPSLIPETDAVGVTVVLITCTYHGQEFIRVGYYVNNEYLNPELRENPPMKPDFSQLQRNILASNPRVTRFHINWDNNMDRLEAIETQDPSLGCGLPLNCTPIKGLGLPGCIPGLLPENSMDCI
UniProt Q9Y294: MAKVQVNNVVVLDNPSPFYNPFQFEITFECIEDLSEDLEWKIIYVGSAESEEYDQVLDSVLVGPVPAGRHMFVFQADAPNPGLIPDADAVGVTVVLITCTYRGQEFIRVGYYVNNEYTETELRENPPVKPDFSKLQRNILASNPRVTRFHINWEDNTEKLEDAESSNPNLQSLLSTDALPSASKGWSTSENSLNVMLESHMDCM
FLAG-ASF1A N > B (ASF1A with the NTD of ASF1B) (Q9Y294, form named): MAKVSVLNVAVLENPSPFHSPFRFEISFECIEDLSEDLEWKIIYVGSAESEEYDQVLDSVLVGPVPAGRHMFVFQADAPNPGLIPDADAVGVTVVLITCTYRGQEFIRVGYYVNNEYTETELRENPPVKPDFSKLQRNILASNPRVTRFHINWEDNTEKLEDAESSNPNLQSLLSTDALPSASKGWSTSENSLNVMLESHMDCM

Experiments:
[1] = target: T1, HMHA1* BDA1* ST-CDAN1 (human) (UniProt Q8IWY9); assay: pull-down; Strep-Tactin pulldown of ST-CDAN1 variants co-transfected with FLAG-tagged ASF1A or ASF1B variants in Flp-In 293 T-REx cells; immunoblotting; IP buffer with 1% Triton X-100, 1 hr at 4 °C
T1 sequence: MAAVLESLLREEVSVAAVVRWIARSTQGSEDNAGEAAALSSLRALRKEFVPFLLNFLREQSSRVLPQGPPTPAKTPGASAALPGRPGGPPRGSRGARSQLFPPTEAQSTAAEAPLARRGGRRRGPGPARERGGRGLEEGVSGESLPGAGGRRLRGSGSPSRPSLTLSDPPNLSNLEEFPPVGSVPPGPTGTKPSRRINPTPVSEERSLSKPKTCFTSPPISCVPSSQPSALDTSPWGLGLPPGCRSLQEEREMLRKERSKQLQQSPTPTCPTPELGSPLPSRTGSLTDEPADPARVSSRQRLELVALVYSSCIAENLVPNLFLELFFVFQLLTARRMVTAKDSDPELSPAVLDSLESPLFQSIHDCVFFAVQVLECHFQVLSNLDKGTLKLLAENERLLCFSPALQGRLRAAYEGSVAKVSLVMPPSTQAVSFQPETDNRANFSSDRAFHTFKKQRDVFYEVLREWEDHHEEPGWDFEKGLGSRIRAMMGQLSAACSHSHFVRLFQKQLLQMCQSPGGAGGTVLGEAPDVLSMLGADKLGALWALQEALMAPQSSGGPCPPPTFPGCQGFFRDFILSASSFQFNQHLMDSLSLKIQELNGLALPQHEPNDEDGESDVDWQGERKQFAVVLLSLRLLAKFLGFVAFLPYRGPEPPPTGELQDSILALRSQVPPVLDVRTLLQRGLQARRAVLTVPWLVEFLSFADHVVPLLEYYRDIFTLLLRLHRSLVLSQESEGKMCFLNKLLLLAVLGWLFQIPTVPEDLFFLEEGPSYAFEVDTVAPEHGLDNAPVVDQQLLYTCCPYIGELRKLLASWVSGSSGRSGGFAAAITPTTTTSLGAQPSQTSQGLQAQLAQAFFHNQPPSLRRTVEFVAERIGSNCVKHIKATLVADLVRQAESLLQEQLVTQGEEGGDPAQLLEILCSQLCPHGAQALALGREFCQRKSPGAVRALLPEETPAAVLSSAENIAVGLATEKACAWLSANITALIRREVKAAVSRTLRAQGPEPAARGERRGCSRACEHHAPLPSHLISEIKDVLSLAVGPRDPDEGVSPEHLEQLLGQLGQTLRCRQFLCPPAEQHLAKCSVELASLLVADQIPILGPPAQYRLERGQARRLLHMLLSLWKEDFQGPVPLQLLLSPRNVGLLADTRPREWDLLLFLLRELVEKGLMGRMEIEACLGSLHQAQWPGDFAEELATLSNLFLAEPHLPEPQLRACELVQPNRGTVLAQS

[2] = target: T2, Strep-CDAN1 HMHA1* BDA2* (human) (UniProt Q8IWY9); assay: as above
T2 sequence: T1 sequence with S194A, R195A, R196A, A824M, A825R, A826K

Substance	binding [1]	binding [2]
FLAG-tagged ASF1B (F-ASF1B) (from UniProt Q9NVP2 1-202)	no binding	no binding
FLAG-tagged ASF1A (F-ASF1A) (from UniProt Q9Y294 1-204)	binds	no binding
FLAG-ASF1A N > B (ASF1A with the NTD of ASF1B) (from UniProt Q9Y294 1-204)	no binding	no binding
FLAG-ASF1B N > A (ASF1B with the NTD of ASF1A) (from UniProt Q9NVP2 1-202)	binds	no binding
